Measurements taken from patent publication US12201684B2, “Compositions for stimulation of mammalian innate immune resistance to pathogens” (priority 2009, dated 2025).
No end group written: not given here.

Procedure: A highly conserved 22 amino acid segment of flagellin, a known ligand of TLR5, was identified. This amino acid segment was submitted for synthesis at Cell Essentials, Inc., Boston, MA. The peptide was confirmed to be >95% pure based on HPLC and Maldi-TOF mass spectrometry, and its solubility in PBS was confirmed. The synthetic fragment of Flg22 was delivered at 100 μg/ml.

## QRLSTGSRINSAKDDAAGLQIA [Flg22]
  solubility in PBS: confirmed
